Test results published in patent US20130171133A1 (IMPERIAL INNOVATIONS, published 2013).

Target: T1, EGFR (from SK-OV-3 derived cell lysates) (UniProt P00533)
T1 construct: whole, on cells; Tested from detergent cell lysates (co-IP, GST pull-down); also called EGF receptor
Assay: GST-OPCML 1-3 pull-down, SKOV-3 lysate

binding result: no binding
B1: GST-OPCML D1+2+3 (GST fusion of all three Ig domains of OPCML) (other)
chain: [about 200 residues skipped]PKAMDNVTVRQGESATLRCTIDDRVTRVAWLNRSTILYAGNDKWSIDPRVIILVNTPTQYSIMIQNVDVYDEGPYTCSVQTDNHPKTSRVHLIVQVPPQIMNISSDITVNEGSSVTLLCLAIGRPEPTVTWRHLSVKEGQGFVSEDEYLEISDIKRDQSGEYECSALNDVAAPDVRKVKITVNYPPYISKAKNTGVSVGQKGILSCEASAVPMAEFQWFKEETRLATGLDGMRIENKGRMSTLTFFNVSEKDYGNYTCVATNKLGNTNASIT
notes: also called GST-OPCML 1+2+3; GST-OPCML 1-3
